The list shows a part of the results. Repeats are few or missing, and single values can be far off.
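Also: cell number obtained by counting DAPI-stained nuclei in high-throughput microscope images with image analysis software, screen run in 1,536-well plates.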

The first experiment concerns LB2518-MEL. In words: cell count relative to DMSO control; melanoma cells; higher = more viable cells. Particulars: library dose: low library concentration; 72 h.
In the case of `Nc1nc(F)nc2c1ncn2[C@@H]1O[C@H](CO)[C@@H](O)[C@@H]1O` [fludarabine] + CN(NC(=O)CC(=O)NN(C)C(=S)c1ccccc1)C(=S)c1ccccc1 [STA4783] (first compound 0.2 µM, partner dose 0.006 µM), the cell count is 66.4%.

The compound `Nc1ncn([C@H]2C[C@H](O)[C@@H](CO)O2)c(=O)n1` [decitabine] + c1cc(-c2cnn3cc(-c4ccc(OCCN5CCCCC5)cc4)cnc23)ccn1 [Dorsomorphin] (first compound 0.1 µM, partner dose 0.4 µM) had a cell count of 96.5%.

As to `CC(=O)c1c(C)c2cnc(Nc3ccc(N4CCNCC4)cn3)nc2n(C2CCCC2)c1=O` [palbociclib] + COc1cc(N2CCC(N3CCN(C)CC3)CC2)ccc1Nc1ncc(Cl)c(Nc2ccccc2S(=O)(=O)C(C)C)n1 [NVP-TAE684] (first compound 0.04 µM, partner dose 0.08 µM), the cell count came out at 76.1%.

`CC(=O)O[C@@]12CO[C@@H]1C[C@H](O)[C@@]1(C)C(=O)[C@H](O)C3=C(C)[C@@H](OC(=O)[C@H](O)[C@@H](NC(=O)OC(C)(C)C)c4ccccc4)C[C@@](O)([C@@H](OC(=O)c4ccccc4)[C@H]21)C3(C)C` [Docetaxel] + CCCCCCCCCCCC1=C(O)C(=O)C=C(O)C1=O [Embelin] (first compound 0.0001 µM, partner dose 1.2 µM) came in with a cell count of 63.6%.

As for `Nc1nc(F)nc2c1ncn2[C@@H]1O[C@H](CO)[C@@H](O)[C@@H]1O` [fludarabine] + NCC(=O)Nc1ccc(-n2nc(C(F)(F)F)cc2-c2ccc3c(ccc4ccccc43)c2)cc1 [OSU03012] (first compound 0.2 µM, partner dose 1 µM), the cell count turned out to be 84.8%.

As to `Nc1ccn([C@@H]2O[C@H](CO)[C@@H](O)C2(F)F)c(=O)n1` [gemcitabine] + COc1cc(Nc2ncc(F)c(Nc3ccc4c(n3)NC(=O)C(C)(C)O4)n2)cc(OC)c1OC [Tamatinib] (first compound 0.0004 µM, partner dose 0.4 µM), the cell count is 80.3%.

The compound `Nc1nc(F)nc2c1ncn2[C@@H]1O[C@H](CO)[C@@H](O)[C@@H]1O` [fludarabine] + COc1cc(N2CCC(N3CCN(C)CC3)CC2)ccc1Nc1ncc(Cl)c(Nc2ccccc2S(=O)(=O)C(C)C)n1 [NVP-TAE684] (first compound 0.2 µM, partner dose 0.08 µM) registered a cell count of 113%.

Compound `Nc1ncn([C@H]2C[C@H](O)[C@@H](CO)O2)c(=O)n1` [decitabine] + COc1cc(Nc2ncc(F)c(Nc3ccc4c(n3)NC(=O)C(C)(C)O4)n2)cc(OC)c1OC [Tamatinib] (first compound 0.1 µM, partner dose 0.4 µM) came in with a cell count of 79.6%.

The compound `Nc1ccn([C@@H]2O[C@H](CO)[C@@H](O)C2(F)F)c(=O)n1` [gemcitabine] + Cc1ccc(NC(=O)c2cccc(N(C)C)c2)cc1NC(=O)c1ccc(O)cc1 [ZM336372] (first compound 0.0004 µM, partner dose 2 µM) came in with a cell count of 95.5%.

Consider `Nc1ncn([C@H]2C[C@H](O)[C@@H](CO)O2)c(=O)n1` [decitabine] + NCC(=O)Nc1ccc(-n2nc(C(F)(F)F)cc2-c2ccc3c(ccc4ccccc43)c2)cc1 [OSU03012] (first compound 0.1 µM, partner dose 1 µM), for which the cell count was 91.2%.

For a further experiment, the system named is LOXIMVI. The experiment is described as above. Particulars: library dose: low library concentration; 72 h.
Consider `Nc1ncn([C@H]2C[C@H](O)[C@@H](CO)O2)c(=O)n1` [decitabine] + CC(C)CCN1c2nc(Nc3cc(F)c(O)c(F)c3)ncc2N(C)C(=O)C1C [BID1870] (first compound 0.1 µM, partner dose 0.2 µM), for which the cell count was 116%.

Consider `Nc1ccn([C@@H]2O[C@H](CO)[C@@H](O)C2(F)F)c(=O)n1` [gemcitabine] + CC(C)CCN1c2nc(Nc3cc(F)c(O)c(F)c3)ncc2N(C)C(=O)C1C [BID1870] (first compound 0.0004 µM, partner dose 0.2 µM), for which the cell count was 118%.

The compound `Nc1ncn([C@H]2C[C@H](O)[C@@H](CO)O2)c(=O)n1` [decitabine] + CC1(C)NC(=O)N(c2ccc([N+](=O)[O-])c(C(F)(F)F)c2)C1=O [nilutamide] (first compound 0.1 µM, partner dose 1 µM) had a cell count of 130%.

In the case of `CC(=O)O[C@@]12CO[C@@H]1C[C@H](O)[C@@]1(C)C(=O)[C@H](O)C3=C(C)[C@@H](OC(=O)[C@H](O)[C@@H](NC(=O)OC(C)(C)C)c4ccccc4)C[C@@](O)([C@@H](OC(=O)c4ccccc4)[C@H]21)C3(C)C` [Docetaxel] + CCc1ccc(CCOc2ccc(CC3SC(=O)NC3=O)cc2)nc1 [pioglitazone] (first compound 0.0001 µM, partner dose 2 µM), the cell count is 51.3%.

For the compound `Nc1ncn([C@H]2C[C@H](O)[C@@H](CO)O2)c(=O)n1` [decitabine] + Cc1cc(N2CCOCC2)cc2[nH]c(-c3c(NC[C@@H](O)c4cccc(Cl)c4)cc[nH]c3=O)nc12 [BMS536924] (first compound 0.1 µM, partner dose 0.2 µM), the cell count turned out to be 92.4%.

`Nc1ncn([C@H]2C[C@H](O)[C@@H](CO)O2)c(=O)n1` [decitabine] + O=S(=O)(c1ccccc1)N(CC(F)(F)F)c1ccc(C(O)(C(F)(F)F)C(F)(F)F)cc1 [T0901317] (first compound 0.1 µM, partner dose 1.4 µM) returned a cell count of 103%.

In the case of `Nc1ncn([C@H]2C[C@H](O)[C@@H](CO)O2)c(=O)n1` [decitabine] + COc1cc(N2CCC(N3CCN(C)CC3)CC2)ccc1Nc1ncc(Cl)c(Nc2ccccc2S(=O)(=O)C(C)C)n1 [NVP-TAE684] (first compound 0.1 µM, partner dose 0.08 µM), the cell count amounted to 88%.

`CC(=O)c1c(C)c2cnc(Nc3ccc(N4CCNCC4)cn3)nc2n(C2CCCC2)c1=O` [palbociclib] + Oc1nc(-c2ccc(C(F)(F)F)cc2)nc2c1CSCC2 [XAV939] (first compound 0.04 µM, partner dose 2 µM): the cell count came out at 98.2%.

In turn, `Nc1ccn([C@@H]2O[C@H](CO)[C@@H](O)C2(F)F)c(=O)n1` [gemcitabine] + O=c1cc(-c2cccc3c2Sc2ccccc2S3)oc(N2CCOCC2)c1 [KU55933] (first compound 0.0004 µM, partner dose 1 µM) registered a cell count of 115%.

On to `Nc1ncn([C@H]2C[C@H](O)[C@@H](CO)O2)c(=O)n1` [decitabine] + N#Cc1c(O)c2c(-c3ccc(-c4ccccc4O)cc3)csc2[nH]c1=O [A769662] (first compound 0.1 µM, partner dose 2 µM), for which the cell count is 66.3%.

For `Nc1nc(F)nc2c1ncn2[C@@H]1O[C@H](CO)[C@@H](O)[C@@H]1O` [fludarabine] + CN(C)S(=O)(=O)c1ccc2c(c1)/C(=C/c1cc3c([nH]1)CCCC3)C(=O)N2 [SU6656] (first compound 0.2 µM, partner dose 0.4 µM), the cell count is 107%.

Turning to `Nc1ncn([C@H]2C[C@H](O)[C@@H](CO)O2)c(=O)n1` [decitabine] + CCc1ccc(CCOc2ccc(CC3SC(=O)NC3=O)cc2)nc1 [pioglitazone] (first compound 0.1 µM, partner dose 2 µM), the cell count was 87.1%.

In turn, `CC(=O)c1c(C)c2cnc(Nc3ccc(N4CCNCC4)cn3)nc2n(C2CCCC2)c1=O` [palbociclib] + CN(NC(=O)CC(=O)NN(C)C(=S)c1ccccc1)C(=S)c1ccccc1 [STA4783] (first compound 0.04 µM, partner dose 0.006 µM) showed a cell count of 55.1%.

In the case of `CC(=O)O[C@@]12CO[C@@H]1C[C@H](O)[C@@]1(C)C(=O)[C@H](O)C3=C(C)[C@@H](OC(=O)[C@H](O)[C@@H](NC(=O)OC(C)(C)C)c4ccccc4)C[C@@](O)([C@@H](OC(=O)c4ccccc4)[C@H]21)C3(C)C` [Docetaxel] + CS(=O)(=O)CCNCc1ccc(-c2ccc3ncnc(Nc4ccc(OCc5cccc(F)c5)c(Cl)c4)c3c2)o1 [lapatinib] (first compound 0.0001 µM, partner dose 0.8 µM), the cell count was 102%.

`CC(=O)O[C@@]12CO[C@@H]1C[C@H](O)[C@@]1(C)C(=O)[C@H](O)C3=C(C)[C@@H](OC(=O)[C@H](O)[C@@H](NC(=O)OC(C)(C)C)c4ccccc4)C[C@@](O)([C@@H](OC(=O)c4ccccc4)[C@H]21)C3(C)C` [Docetaxel] + c1cc(-c2cnn3cc(-c4ccc(OCCN5CCCCC5)cc4)cnc23)ccn1 [Dorsomorphin] (first compound 0.0001 µM, partner dose 0.4 µM) showed a cell count of 57.5%.

`CO[C@H]1C[C@@H]2CC[C@@H](C)[C@@](O)(O2)C(=O)C(=O)N2CCCC[C@H]2C(=O)O[C@H]([C@H](C)C[C@@H]2CC[C@@H](OCCO)[C@H](OC)C2)CC(=O)[C@H](C)/C=C(\C)[C@@H](O)[C@@H](OC)C(=O)[C@H](C)C[C@H](C)/C=C/C=C/C=C/1C` [everolimus] + COc1cc2ncnc(Nc3ccc(Oc4ccccc4)cc3)c2cc1OC [SrcI1] (first compound 0.02 µM, partner dose 2 µM): the cell count turned out to be 113%.

Turning to `Nc1ncn([C@H]2C[C@H](O)[C@@H](CO)O2)c(=O)n1` [decitabine] + COC(=O)c1sccc1S(=O)(=O)Nc1ccc(Nc2ccccc2)cc1OC [GSK0660] (first compound 0.1 µM, partner dose 1 µM), the cell count is 138%.

As for `Nc1nc(F)nc2c1ncn2[C@@H]1O[C@H](CO)[C@@H](O)[C@@H]1O` [fludarabine] + CCN(CC)CCCCNc1ncc2cc(-c3cc(OC)cc(OC)c3)c(NC(=O)NC(C)(C)C)nc2n1 [PD173074] (first compound 0.2 µM, partner dose 0.1 µM), the cell count was determined as 79.9%.

The record behind these values is the supplement of paper PMC4604168 (melanoma cell lines).
